# Article PMC5892938
# This is one part of the list. At the low end of the ranking the order means little.
# Target: GST-SBP-SLBP (stem-loop binding protein) (UniProt Q14493)
# Assay: targeted RNA Bind-n-Seq;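 also: DESeq read counts versus GST-SBP nonspecific binding control pulldown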
# Conditions: RBNS binding buffer: 25 mM Tris pH 7.5, 150 mM KCl, 3 mM MgCl2, 0.1% Tween, 0.5 mg/mL BSA, 1 mM DTT; 27 nM protein, 750 pM RNA pool; temperature not stated; high values mean tight binding
row,Sequence,binding signal (log2 fold change)
1,GGUCACGUCUCAAUCAACUCAAAAGAGGGGGGGAAAACCCCUUUGCCCUCCAUUUCAACAGCUCGCAGUCAAG,0.219
2,GGUCACGUCUCAAUCAACUCCAAAGAGGGGGGGAAAACCCCUUUACCCUCGAAUUCAACAGCUCGCAGUCAAG,-0.144
3,GGUCACGUCUCAAUCAACUCCAAAGAGGGGGGGAAAACCCCUUUGCCCUCAUCGUCAACAGCUCGCAGUCAAG,-0.256
4,GGUCACGUCUCAAUCAACUCAUAAGAGGGGGGGAAAACCCCUUUGCCCUCAUCAUCAACAGCUCGCAGUCAAG,-0.311
5,GGUCACGUCUCAAUCAACUCAUUUUCCAGGGAAACCCCUGGCAAUUUCAACAGCUCGCAGUCAAG,-0.016
6,GGUCACGUCUCAAUCAACUCUUCCUCAGGAGUUUACUCCUGCUAUUUCAACAGCUCGCAGUCAAG,0.0966
7,GGUCACGUCUCAAUCAACUCAACUCCAGGAGUUUGCUCCUGCUUAUUCAACAGCUCGCAGUCAAG,0.000444
8,GGUCACGUCUCAAUCAACUCAAUUUCAGGAGUUUUCUCCUGCAUAUUCAACAGCUCGCAGUCAAG,-0.0376
9,GGUCACGUCUCAAUCAACUCAAUUCCAGGAGUUUACUCCUGCAAAUUCAACAGCUCGCAGUCAAG,0.12
10,GGUCACGUCUCAAUCAACUCAACGCCAGGAGUUUUCUCCUGCAAAUUCAACAGCUCGCAGUCAAG,-0.0289
11,GGUCACGUCUCAAUCAACUCUCAAGAGGGGGGGAAAACCCCUUUACCCUCGUACUCAACAGCUCGCAGUCAAG,0.0261
12,GGUCACGUCUCAAUCAACUCCUCAGAGGGGGGGAAAACCCCUUUACCCUCACACUCAACAGCUCGCAGUCAAG,0.102
13,GGUCACGUCUCAAUCAACUCUUCCCCAGGAGUUUUCUCCUGUAUACUCAACAGCUCGCAGUCAAG,0.123
14,GGUCACGUCUCAAUCAACUCAUUCGAGGGGGGGAAAACCCCUUUACCCUCACAUUCAACAGCUCGCAGUCAAG,-0.295
15,GGUCACGUCUCAAUCAACUCUAUUUCCAGGGAAAGCCCUGGCGUUUUCAACAGCUCGCAGUCAAG,0.021
16,GGUCACGUCUCAAUCAACUCUACUUCCAGGGAAAUCCCUGGCUUUCUCAACAGCUCGCAGUCAAG,-0.163
17,GGUCACGUCUCAAUCAACUCAUUCCCCAGGGAAAGCCCUGGCUUUUUCAACAGCUCGCAGUCAAG,0.512
18,GGUCACGUCUCAAUCAACUCAACUUCAGGAGUUUCCUCCUGCAUUUUCAACAGCUCGCAGUCAAG,0.117
19,GGUCACGUCUCAAUCAACUCAACUUCAGGAGUUUUCUCCUGCUAUGUCAACAGCUCGCAGUCAAG,0.143

row,Sequence,binding signal (log2 fold change)
1,GGUCACGUCUCAAUCAACUCUUCGUCAGGAGUUUACUCCUGCAAAUUCAACAGCUCGCAGUCAAG,-0.132
2,GGUCACGUCUCAAUCAACUCUUCUCCCAGGGAAAUCCCUGGUUUACUCAACAGCUCGCAGUCAAG,-0.125
3,GGUCACGUCUCAAUCAACUCCUCAGAGGGGGGGAAAACCCCUUUACCCUCCACCUCAACAGCUCGCAGUCAAG,0.326
4,GGUCACGUCUCAAUCAACUCUAUUCCCAGGGAAAUCCCUGGUUUACUCAACAGCUCGCAGUCAAG,-0.113
5,GGUCACGUCUCAAUCAACUCUACUUCAGGAGUUUCCUCCUGCUAAUUCAACAGCUCGCAGUCAAG,0.0446
6,GGUCACGUCUCAAUCAACUCCCACGAGGGGGGGAAAACCCCUUUACCCUCAAUCUCAACAGCUCGCAGUCAAG,0.245
7,GGUCACGUCUCAAUCAACUCAUUUCCCAGGGAAAACCCUGGUUAUCUCAACAGCUCGCAGUCAAG,0.162
8,GGUCACGUCUCAAUCAACUCUUCUCCCAGGGAAAUCCCUGGUUUAUUCAACAGCUCGCAGUCAAG,-0.243
9,GGUCACGUCUCAAUCAACUCAAUUUCAGGAGUUUCCUCCUGCAAACUCAACAGCUCGCAGUCAAG,0.00572
10,GGUCACGUCUCAAUCAACUCAACUUCAGGAGUUUCCUCCUGCAAUGUCAACAGCUCGCAGUCAAG,-0.134
11,GGUCACGUCUCAAUCAACUCUAACGAGGGGGGGAAAACCCCUUUACCCUCAAACUCAACAGCUCGCAGUCAAG,0.21
12,GGUCACGUCUCAAUCAACUCCAACGAGGGGGGGAAAACCCCUUUACCCUCAUACUCAACAGCUCGCAGUCAAG,0.165
13,GGUCACGUCUCAAUCAACUCUAAAGAGGGGGGGAAAACCCCUUUACCCUCCCAAUCAACAGCUCGCAGUCAAG,0.0917
14,GGUCACGUCUCAAUCAACUCAGUCCCAGGAGUUUUCUCCUGUUAAUUCAACAGCUCGCAGUCAAG,-0.125
15,GGUCACGUCUCAAUCAACUCAAUGGCAGGAGUUUACUCCUGGAAAUUCAACAGCUCGCAGUCAAG,0.0622
16,GGUCACGUCUCAAUCAACUCAUCGUCCAGGGAAAACCCUGGCUAUUUCAACAGCUCGCAGUCAAG,0.19
17,GGUCACGUCUCAAUCAACUCAUUAGAGGGGGGGAAAACCCCUUUACCCUCCACUUCAACAGCUCGCAGUCAAG,-0.252
18,GGUCACGUCUCAAUCAACUCAAUCGAGGGGGGGAAAACCCCUUUACCCUCAUUCUCAACAGCUCGCAGUCAAG,-0.0701
